{"source": "PubChem BioAssay AID624202", "about": "(National Center for Advancing Translational Sciences (NCATS), 2012)", "note": "Hit rate of the full screen: of about 380,000 compounds, about 4,000 (1.1%) were called active. The shares of active, inactive and inconclusive entries below differ from those in the screen. Calls follow the shape of the dose curve; as a rule, active = well fitted activation curve with a large enough effect; inconclusive = small, poorly fitted or top-dose-only effect; inactive = no such curve, though single readings can be large or run the other way. A potency beside an inconclusive call is a rough fit, not a confirmed value. Potency is read from the fitted curve at half-maximal effect; tags tell the direction and shape of the fitted curve.", "data": [{"assay": "qHTS Assay to Identify Small Molecule Activators of BRCA1 Expression; also: nearly all actives have a fitted effect of over 80% in size", "conditions": "MCF7-BRCA1-FFLuc reporter, luminescence, 48 h; activation: at 46.1 µM (top of the series), scaled: vehicle 0%, 10 µM genistein 100% unless noted", "in_short": "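Quantitative HTS in MCF7 cells stably reporting BRCA1 expression via firefly luciferase. Compound treatment lasts 48 h at 37 °C in phenol-red free MEM. Activation is expressed relative to genistein at 10 microM and DMSO.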", "values": [{"smiles": "Brc1ccc(-n2cnc(-c3ccccc3)c2)cc1", "activation": "inconclusive: 3.26% [activator]"}, {"smiles": "COc1ccc(OC)c(C2SCCN2S(C)(=O)=O)c1", "note": "(stereo not drawn)", "Potency": "inactive"}, {"smiles": "COc1ccc2[nH]c3c(c2c1)CCN1C(=O)C(CC(=O)NCC24CC5CC(CC(C5)C2)C4)C[C@H](C(=O)N2CCCCC2)[C@@]31C", "note": "(stereo partly drawn)", "Potency": "inactive"}, {"smiles": "Cc1nc2cc(NC(=O)NC(C)(C)C)ccc2n1C", "Potency": "inconclusive: 12.6 µM [activator, single point]"}, {"smiles": "CC(C)(C)Nc1nc(NN)nc(NC(C)(C)C)n1", "Potency": "inactive"}, {"smiles": "COc1ccc(N/C=C\\C(=O)c2ccc(C)cc2)cc1OC", "Potency": "inconclusive: 3.16 µM [activator, partial curve, poor fit]"}, {"smiles": "Cc1ccc(Nc2nc(N)nc(CSc3nccn3C)n2)c(C)c1", "Potency": "active: 7.08 µM"}, {"smiles": "CC(C)c1ccc(Nc2ncccc2C#N)cc1", "Potency": "inconclusive: 35.5 µM [activator, single point]"}, {"smiles": "CC(=O)c1ccc(Oc2ncnc3sccc23)cc1", "Potency": "inconclusive: 12.6 µM [activator, partial curve, poor fit]"}, {"smiles": "Cc1ccc(N=Nc2cc(C)ccc2O)c(C)c1", "Potency": "inconclusive: 3.16 µM [activator, partial curve, poor fit]"}, {"smiles": "CC1CCCC(NC(=O)CN(C)S(=O)(=O)c2cccc3cccnc23)C1C", "note": "(stereo not drawn)", "Potency": "inactive"}, {"smiles": "Cc1ccc(-c2nc(C)sc2CC(=O)NCc2ccco2)cc1", "Potency": "inactive"}, {"smiles": "O=C(NCCSc1ccccc1)c1ccccc1Cl", "Potency": "active: 2.82 µM"}, {"smiles": "Cc1ccc(-c2nc(C3CCN(S(C)(=O)=O)CC3)no2)cc1", "Potency": "inconclusive: 31.6 µM [activator, single point]"}, {"smiles": "CCC(C)Sc1ccc(-c2nc3ccc(Cl)cn3c2NCc2ccccc2)cc1", "note": "(stereo not drawn)", "Potency": "inconclusive: 20 µM [activator, single point]"}, {"smiles": "COc1ccc(-c2cc3ccc(OCC(C)=O)cc3oc2=O)cc1", "activation": "inconclusive: 71.5% [activator]"}, {"smiles": "CCN(CC)S(=O)(=O)c1cc(C(=O)OCC(=O)NC2CCCc3ccccc32)ccc1C", "note": "(stereo not drawn)", "Potency": "inactive"}, {"smiles": "CC(=O)Nc1cccc(-c2csc(Nc3cc(C)ccn3)n2)c1", "Potency": "inconclusive: 3.16 µM [activator, partial curve, poor fit]"}, {"smiles": "CCOC(=O)c1cnc(-c2ccccc2)nc1N", "Potency": "active: 3.98 µM"}, {"smiles": "Cc1cccc(-c2noc(CCc3ccccc3)n2)c1", "Potency": "inconclusive: 3.98 µM [activator, partial curve, poor fit]"}, {"smiles": "COc1ccc(-c2cc(=O)c3c(O)c(OC)c(O)cc3o2)cc1", "Potency": "inconclusive: 3.16 µM [activator, partial curve, poor fit]"}, {"smiles": "CN(C)c1cccc(C(=O)NNC(=S)NC2CC3CCC2C3)c1", "note": "(stereo not drawn)", "Potency": "inconclusive: 20 µM [activator, single point]"}, {"smiles": "Cc1cc(NC(=O)CSc2nnc(-c3ccccc3Cl)o2)no1", "Potency": "inconclusive: 20 µM [activator, single point]"}, {"smiles": "Nc1cccc(-c2nc3ccccc3s2)c1", "Potency": "inconclusive: 2.51 µM [activator, partial curve, poor fit]"}, {"smiles": "CC(C)(C)Nc1nc(Cl)nc(Nc2ccccc2)n1", "Potency": "active: 11.2 µM"}, {"smiles": "C=CCn1c(SCC(=O)NCC2CCCO2)nc2c([nH]c3ccccc32)c1=O", "note": "(stereo not drawn)", "Potency": "inactive"}, {"smiles": "CCN(c1ccccc1)S(=O)(=O)c1ccc(C(=O)N2CCN(c3ccccc3)CC2)cc1", "Potency": "inactive"}, {"smiles": "COc1ccc(-c2ccc3sc4ccccc4c(=O)c3c2)cn1", "Potency": "inconclusive: 3.55 µM [activator, full curve, poor fit]"}, {"smiles": "COc1ccc2c(c1)c(=O)c(C(=O)c1ccc(F)cc1)cn2CC(=O)Nc1ccc2c(c1)OCCO2", "Potency": "inactive"}, {"smiles": "CN(C)c1ccc(/C=C2\\CCCc3c2nc2ccccc2c3C(=O)O)cc1", "Potency": "inconclusive: 15.8 µM [activator, partial curve, poor fit]"}, {"smiles": "O=[N+]([O-])c1ccccc1-c1nc(-c2ccc(Br)o2)no1", "Potency": "inconclusive: 1.58 µM [activator, partial curve, poor fit]"}, {"smiles": "CC(=O)Nc1cccc(-c2csc(Nc3ccccn3)n2)c1", "Potency": "inconclusive: 2 µM [activator, partial curve, poor fit]"}, {"smiles": "CCOc1ccc(NC(=O)CN(c2ccc(OC)cc2)S(C)(=O)=O)cc1", "Potency": "active: 11.2 µM"}, {"smiles": "Cc1sc(NC(=O)c2ccccc2)c(C#N)c1-c1ccccc1", "Potency": "inconclusive: 2.51 µM [activator, partial curve, poor fit]"}, {"smiles": "CC1(C)CC(N2CCOCC2)=CC(=[N+]2CCOCC2)C1", "Potency": "inactive"}, {"smiles": "Oc1ccc(/C=N/Nc2cccc3cccnc23)c(O)c1", "Potency": "inconclusive: 31.6 µM [activator, single point]"}, {"smiles": "O=C(CN1CCN(c2nc(-c3ccc(F)cc3)cs2)CC1)NCc1ccc2c(c1)OCO2", "Potency": "inactive"}, {"smiles": "COc1cccc(OCc2cc(C(=O)N3CCN(C(=O)c4ccco4)CC3)no2)c1", "Potency": "active: 11.2 µM"}, {"smiles": "COc1ccccc1C(=O)Nc1nsc(-c2ccccc2)n1", "Potency": "inconclusive: 2.51 µM [activator, full curve, poor fit]"}, {"smiles": "Cc1[nH]n(C(N)=S)c(=O)c1N=Nc1cccc([N+](=O)[O-])c1C", "Potency": "inconclusive: 15.8 µM [activator, partial curve, poor fit]"}, {"smiles": "Cc1ccsc1C(=O)OCC(=O)NC1CCCCC1", "Potency": "inconclusive: 12.6 µM [activator, partial curve, poor fit]"}, {"smiles": "CSc1ccc(/C=C/C(=O)NC23CC4CC(CC(C4)C2)C3)cc1", "Potency": "active: 11.2 µM"}, {"smiles": "Cc1ccc2nc(SCn3nnc4ccccc4c3=O)[nH]c2c1", "activation": "inconclusive: -46.3% [activator]"}, {"smiles": "CC(C)(C)c1cc(C(=O)N/N=C/c2ccco2)n[nH]1", "Potency": "inconclusive: 31.6 µM [activator, single point]"}, {"smiles": "COc1cc(/C=C/C(=O)NC(=O)c2ccccc2O)ccc1O", "Potency": "inconclusive: 6.31 µM [activator, partial curve, poor fit]"}, {"smiles": "Cc1cc(C)c2nc(NC(=O)c3ccco3)sc2c1", "Potency": "inconclusive: 0.631 µM [activator, full curve, poor fit]"}, {"smiles": "N#CC1=C2SCN(c3ccccc3)CN2C(=O)CC1c1ccccc1Cl", "note": "(stereo not drawn)", "Potency": "inactive"}, {"smiles": "Fc1ccc(-c2csc(N3CCC(c4ccccc4)C3)n2)cc1", "note": "(stereo not drawn)", "Potency": "inconclusive: 1.58 µM [activator, partial curve, poor fit]"}, {"smiles": "Cc1cccc(NC(=O)c2ccc(COc3ccc4ccccc4c3)o2)n1", "Potency": "inconclusive: 1.58 µM [activator, full curve, poor fit]"}, {"smiles": "COc1ccc(OCC(=O)Nc2cc(C)c(Cl)cc2OC)c([N+](=O)[O-])c1", "Potency": "inconclusive: 1.41 µM [activator, full curve, poor fit]"}, {"smiles": "CCCCN(C)C(=O)c1cc2cc3ccc(OC)cc3nc2o1", "Potency": "active: 4.47 µM"}, {"smiles": "COc1ccc(OCc2csc(N)n2)cc1", "Potency": "active: 10 µM"}, {"smiles": "Oc1ccc(C(=S)N2CCN(Cc3ccccc3)CC2)cc1", "Potency": "inactive"}, {"smiles": "O=C(Nc1ccc(Cl)cc1Cl)c1ccc2ncsc2c1", "Potency": "inconclusive: 2.51 µM [activator, full curve, poor fit]"}, {"smiles": "CCC(C)NC(=O)c1ccc(C(=O)c2ccccc2)cc1", "note": "(stereo not drawn)", "Potency": "inconclusive: 15.8 µM [activator, single point]"}, {"smiles": "O=C(NCC(=O)N1CCCCC1)c1sc2ccccc2c1Cl", "Potency": "active: 4.47 µM"}, {"smiles": "COC(=O)c1ccc(Cn2cnc3cnccc32)cc1", "Potency": "inactive"}, {"smiles": "Cc1ccccc1CNc1nc(N)n(-c2ccccc2)n1", "Potency": "inconclusive: 17.8 µM [activator, partial curve, poor fit]"}, {"smiles": "CSc1ccc(Cc2ccc(Cl)cc2Cl)nn1", "Potency": "inconclusive: 20 µM [activator, single point]"}, {"smiles": "COc1ccc(-c2noc(C3CCCN(C(=O)Nc4ccccc4)C3)n2)cc1", "note": "(stereo not drawn)", "Potency": "inconclusive: 6.31 µM [activator, partial curve, poor fit]"}, {"smiles": "Cc1cc(=O)oc2cc(NC(=O)c3ccc(OC(F)F)cc3)ccc12", "Potency": "inactive"}, {"smiles": "COc1ccc(NC(=O)/C(C#N)=C/c2ccc(OCc3ccccc3F)cc2)cc1", "Potency": "inconclusive: 8.91 µM [activator, partial curve, poor fit]"}, {"smiles": "O=C(Nc1ccc(Cl)cc1Cl)c1n[nH]c(Cn2cncn2)n1", "Potency": "inconclusive: 3.55 µM [activator, partial curve, poor fit]"}, {"smiles": "Cc1cc(/C(N)=N/OC(=O)c2ccc(Cl)cc2)no1", "Potency": "active: 7.94 µM"}, {"smiles": "O=C(NCCc1ccc(F)cc1)c1ccc([N+](=O)[O-])cc1", "Potency": "inconclusive: 2.51 µM [activator, full curve, poor fit]"}, {"smiles": "Cc1nc2cc3ccccc3cc2c(=O)[nH]1", "Potency": "active: 11.2 µM"}, {"smiles": "Cc1ccc(-n2nc3cc(C)c(NC(=O)c4cccnc4)cc3n2)cc1", "Potency": "inconclusive: 0.631 µM [activator, full curve, poor fit]"}, {"smiles": "Cc1ccc(NC(=O)C/C(N)=N/OC(=O)Nc2ccc(C)c(Cl)c2)cc1", "Potency": "inconclusive: 17.8 µM [activator, single point]"}, {"smiles": "CCc1nc(NCc2cccs2)c2nnn(Cc3ccccc3)c2n1", "Potency": "inactive"}, {"smiles": "COC(=O)c1ccc(NC(=O)CN(c2ccc(OC)cc2)S(C)(=O)=O)cc1", "Potency": "active: 11.2 µM"}, {"smiles": "CN1C(=O)/C(=C\\c2cc(Br)cs2)c2ccccc21", "Potency": "inconclusive: 31.6 µM [activator, single point]"}, {"smiles": "O=C(NC1(C(F)(F)F)N=C(c2ccccc2)N(Cc2ccccc2)C1=O)c1ccc(F)cc1", "note": "(stereo not drawn)", "Potency": "inactive"}, {"smiles": "O=C(COC(=O)/C=C/c1ccccc1[N+](=O)[O-])Nc1ccc(OCc2ccccc2)cc1", "Potency": "inconclusive: 12.6 µM [activator, partial curve, poor fit]"}]}]}
